Among all 310,000 compounds or so, about 11,000 (3.5%) were called active. Inconclusive results, whose numbers are uncertain, are shown with a selection of clear calls. The call rests on the fitted dose curve; in most records, active means well fitted inhibition curve with a large enough effect; inconclusive means small, poorly fitted or top-dose-only effect, or effect the other way; inactive means flat fitted curve, though single readings scatter. Potencies of inconclusive entries are left out as doubtful fits.
Test: VP16 counterscreen qHTS for inhibitors of ROR gamma transcriptional activity;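 further: Gal4-VP16 expression switched on by copper sulfate through the metallothionein promoter; nearly all actives have a fitted effect of over 50% in size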
Conditions: Drosophila S2 Gal4-VP16 UAS-luciferase, luminescence, 20 h; activity, negative = inhibition: at 53.6 µM (top of the series)
On the % scale 0 is the no-effect control and ±100 the full control effect; potency means the concentration at half of the fitted maximal effect; tags describe the fitted curve by direction and shape.

Q: Which Potency does the source give for `Cc1nc(NC(=O)/C=C/c2ccccc2)sc1C(=O)Nc1ccc(Cl)cc1` here?
A: inconclusive [inhibitor, partial curve]

Q: Which Potency does the source give for `CN=c1scc(C)n1/N=C/c1ccc(O)cc1O` here?
A: active: 1.26 µM

Q: Which “activity, negative = inhibition” value does the source give for `CC1(C)Cc2c(sc3c2c(=O)n(Cc2ccccc2)c2nncn32)CO1` here?
A: inactive: 0.701%

Q: Which Potency does the source give for `C[C@H](NS(=O)(=O)c1ccc(Cl)cc1)C(=O)OCC(=O)NC(=O)Nc1ccc2c(c1)OCCO2` here?
A: inconclusive [activator, single point]

Q: Which Potency does the source give for `CC(C)C[C@@H](NC(=O)[C@@H](Cc1ccccc1)NC(=O)c1cnccn1)B(O)O` here?
A: inconclusive [inhibitor, full curve]

Q: Which Potency does the source give for `CCc1ccc(OCCNC(=O)c2cccs2)cc1` here?
A: inconclusive [inhibitor, single point]

Q: For `COc1ccc(C)cc1S(=O)(=O)Nc1ccc(F)c(Cl)c1`, which Potency is on record?
A: inconclusive [inhibitor, full curve, poor fit]

Q: With `CC(C)CCNC(=O)c1cnn2c(C(F)(F)F)cc(-c3ccco3)nc12` as the molecule, how does the “activity, negative = inhibition” value read?
A: inactive: -1.06%

Q: With `Cc1ccc2nc(-c3ccc(NC(=O)COC(=O)c4ccc(Br)o4)cc3)sc2c1` as the molecule, how does the Potency read?
A: active: 3.98 µM

Q: With `COc1ccc(-c2[nH]ncc2/C=N/NC(=O)c2ccc(Br)cc2)c(OC)c1` as the molecule, how does the Potency read?
A: inconclusive [inhibitor, single point]

Q: For `CCCOc1ccc(Cn2cnc3ccccc32)cc1`, which Potency is on record?
A: inconclusive [inhibitor, single point]

Q: Which “activity, negative = inhibition” value does the source give for `Cc1ccc(NS(=O)(=O)c2c(C)[nH]c(C)c2C(=O)N2CCCCC2)c(Cl)c1` here?
A: inactive: -5.06%

Q: Which Potency does the source give for `S=C1SCN(Cc2cccnc2)CN1Cc1ccccc1` here?
A: active: 6.31 µM

Q: Which Potency does the source give for `CCCOc1ccc(-c2c(C(=O)N/N=C/C3CCCCC3)nnn2-c2nonc2N)cc1` here?
A: inconclusive [inhibitor, single point]

Q: Which Potency does the source give for `O=C(Nc1ccc(Cl)c([N+](=O)[O-])c1)c1ccc(NCCCN2CCOCC2)c([N+](=O)[O-])c1` here?
A: inconclusive [inhibitor, full curve]

Q: For `COc1ccc(CCNC(=S)Nc2ccccc2C)cc1`, which Potency is on record?
A: active: 20 µM

Q: Which Potency does the source give for `S=C(NCCc1ccccc1)Nc1ccccc1N1CCOCC1` here?
A: inconclusive [inhibitor, single point]

Q: For `Cc1ccc(C)c(N2CCN(C(=O)CCS(=O)(=O)c3ccc4c(c3)NC(=O)C(C)S4)CC2)c1` (configuration not stated), which Potency is on record?
A: inconclusive [inhibitor, single point]

Q: For `O=C(O)C1(P(=O)(c2ccccc2)c2ccccc2)CCCC1`, which “activity, negative = inhibition” value is on record?
A: inactive: -0.648%

Q: With `CC(=O)Oc1cccc(N2C(=O)C3C4C=CC(C4)C3C2=O)c1` (configuration not stated) as the molecule, how does the “activity, negative = inhibition” value read?
A: inactive: -6.05%

Q: With `O=C(c1ccco1)N1CCN(S(=O)(=O)c2ccc(Oc3ccccc3)cc2)CC1` as the molecule, how does the Potency read?
A: inconclusive [inhibitor, single point]

Q: For `O=C(O)c1cccc(CN2C(=O)S/C(=C/c3cccc([N+](=O)[O-])c3)C2=O)c1`, which Potency is on record?
A: active: 7.08 µM

Q: With `O=C(Nc1cccc(Cl)c1)Nc1cc(S(=O)(=O)N2CCCCC2)ccc1Cl` as the molecule, how does the Potency read?
A: inconclusive [inhibitor, single point]

Q: With `COCc1nc2ccccc2n1Cc1ccc(Br)cc1` as the molecule, how does the Potency read?
A: inconclusive [inhibitor, single point]

Q: Which Potency does the source give for `Cc1[nH]c2ccccc2c1C(=O)CN1C(=O)NC2(CC(C)CC(C)(C)C2)C1=O` (configuration not stated) here?
A: inconclusive [inhibitor, single point]

Q: For `CCCCOC(=O)Cn1c(=O)oc2ccc(C)cc21`, which Potency is on record?
A: inconclusive [activator, single point]

Q: With `CC(/C=N/n1c(-c2n[nH]c3c2CCC3)n[nH]c1=S)=C\c1ccco1` as the molecule, how does the “activity, negative = inhibition” value read?
A: inactive: -5.49%

Q: For `COc1cccc(N=Nc2ccc3cccnc3c2O)c1`, which Potency is on record?
A: active: 0.891 µM

Q: Which Potency does the source give for `COc1cccc(-c2csc(N3CCN(C(=S)Nc4cccc(Cl)c4)CC3)n2)c1` here?
A: active: 17.8 µM

Q: Which “activity, negative = inhibition” value does the source give for `O=C(CNC(=S)N(Cc1ccccc1)Cc1cccnc1)NC1CCCCC1` here?
A: inactive: 0.0512%

Q: With `O=C(CCc1ccccc1)NNC(=S)NCc1ccc(Cl)cc1` as the molecule, how does the Potency read?
A: inconclusive [inhibitor, partial curve]

Q: Which Potency does the source give for `CCOC(=O)c1ccc(NC(=S)NN)cc1` here?
A: inconclusive [inhibitor, single point]

Q: For `O=C(NC(=S)NCCc1ccccc1)c1ccccc1`, which Potency is on record?
A: inconclusive [inhibitor, single point]

Q: For `CC(=O)/C=C1\N(C)c2ccc(C)cc2C1(C)C`, which Potency is on record?
A: inconclusive [inhibitor, single point]

Q: Which “activity, negative = inhibition” value does the source give for `COC(=O)c1ccc(CN(c2ccccn2)S(=O)(=O)c2ccccc2)cc1` here?
A: inactive: -1.49%

Q: With `COc1ccc(C(=O)NC23CC4CC(CC(C4)C2)C3)cc1` as the molecule, how does the “activity, negative = inhibition” value read?
A: inactive: 5.74%

Q: Which Potency does the source give for `CCC(C)(C)C1CCC(=NNc2nc3ccccc3[nH]2)CC1` (configuration not stated) here?
A: inconclusive [inhibitor, single point]

Q: Which “activity, negative = inhibition” value does the source give for `CCOc1cc(C(=S)N2CCCC2)ccc1OCC(=O)Nc1c(C)cc(C)cc1C` here?
A: inactive: 19%

Q: With `CN(C)c1ccc(/C=C/c2ccncc2)cc1` as the molecule, how does the Potency read?
A: inconclusive [activator, partial curve]

Q: Which Potency does the source give for `COC(=O)C1=C(CN2CCCc3ccccc32)NC(=O)NC1c1ccc(F)cc1` (configuration not stated) here?
A: inconclusive [inhibitor, partial curve]

Q: With `O=S(=O)(c1cccc(NC(=S)N2CCN(c3cccc(Cl)c3)CC2)c1)C(F)F` as the molecule, how does the Potency read?
A: inconclusive [inhibitor, single point]

Q: With `C=CCN(C(=O)c1oc2c(Cl)cc(C)cc2c1C)C1CCS(=O)(=O)C1` (configuration not stated) as the molecule, how does the “activity, negative = inhibition” value read?
A: inactive: 0.225%

Q: Which Potency does the source give for `N#C/C(=C\C=C\c1ccccc1)C(=O)N1CCCC1` here?
A: inconclusive [activator, single point]

Q: For `Cc1ccc(CNC(=S)Nc2ccc(NS(=O)(=O)c3ccc(C)cc3)cc2)cc1`, which Potency is on record?
A: inconclusive [inhibitor, single point]

Q: For `CC(C)CCCCCCNC(=S)Nc1ccc(S(=O)(=O)N2CCOCC2)cc1`, which Potency is on record?
A: inconclusive [inhibitor, single point]

Q: With `COc1ccc(/C=C/C(=O)NC(=S)Nc2ccc(S(=O)(=O)Nc3cc(C)on3)cc2)cc1` as the molecule, how does the “activity, negative = inhibition” value read?
A: inactive: -0.968%

Q: For `O=C(Nc1nnc(C2=COCCO2)o1)c1ccc([N+](=O)[O-])s1`, which Potency is on record?
A: active: 3.16 µM

Source: PubChem BioAssay AID2546 (National Center for Advancing Translational Sciences (NCATS), 2010)
